Assays:
[1] = Rat PK, single SC dose (Example 4); format: in vivo, Sprague-Dawley rats; details: 5 mg/kg subcutaneously
Description: Serum concentrations were then determined using an anti-human Fc based ELISA.
The pharmacokinetic profile of the 16435, 16444, 4241, and 4341 carrier antibodies was determined in adult Sprague-Dawley rats (8-12 weeks old) by injecting 5 mg/kg subcutaneously and collecting approximately 250 μL of blood in Microtainer® serum separator tubes at 0, 0.25, 1, 4, 24, 48, 72, 96, 168, 336, 504, 672, 840 and 1008 hours post-dose from the lateral tail vein. Each sample was maintained at room temperature following collection, and following a 30-40 minute clotting period, samples were centrifuged at 2-8° C. at 11,500 rpm for about 10 minutes using a calibrated Eppendorf 5417R Centrifuge System (Brinkmann Instruments, Inc., Westbury, N.Y.). The collected serum was then transferred into a pre-labeled (for each rat), cryogenic storage tube and stored at −60° C. to −80° C. for future analysis. To measure the serum sample concentrations from the PK study samples, the following method was used: ½ area black plate (Corning 3694) was coated with 2 μg/ml of anti-hu Fc, antibody 1.35.1 in PBS and then incubated overnight at 4° C. The plate was then washed and blocked with I-Block™ (Applied Biosystems) overnight at 4° C. […] The plate was washed, then 50 μl of Pico substrate were added, after which the plate was immediately analyzed with a luminometer.

huIL-17R = molecular target: T1, huIL-17R (Homo sapiens, UniProt Q96F46); assay: BIAcore solution equilibrium binding assay to huIL-17R (16429 immobilized); details: for IL-17R binding capability: 10 nM, 100 nM and 1000 nM antibody incubated with 10 nM IL-17R (FIG. 2A); for IL-17R binding activity: 30 μM antibody with 30 nM IL-17R (FIG. 2B)
T1 construct: FLAG (the F of FpH); polyHis (the pH of FpH)
T1 sequence (Q96F46 with tags, fused parts or gaps): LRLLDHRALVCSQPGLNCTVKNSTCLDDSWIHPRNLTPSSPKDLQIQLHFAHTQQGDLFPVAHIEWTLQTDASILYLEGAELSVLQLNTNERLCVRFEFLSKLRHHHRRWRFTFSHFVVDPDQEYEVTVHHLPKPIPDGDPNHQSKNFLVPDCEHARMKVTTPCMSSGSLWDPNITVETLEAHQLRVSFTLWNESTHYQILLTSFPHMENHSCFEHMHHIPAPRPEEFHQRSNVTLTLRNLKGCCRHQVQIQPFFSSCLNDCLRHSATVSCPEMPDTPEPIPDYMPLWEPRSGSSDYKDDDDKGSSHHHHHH
Description: Antibody 16429 was immobilized to a CM5 sensor chip, and 10 nM of IL-17R in the absence of antibody was used to establish the 100% binding signal of […] that is free of antibody binding in solution. In FIG. 2A, 10 nM, 100 nM and 1000 nM of indicated antibody samples were incubated with the 10 nM IL-17R to determine antibody binding in solution. In FIG. 2B, 30,000 nM of the antibody samples were incubated with 30 nM IL-17R to determine antibody binding in solution. In FIGS. 2A-B, The decreased binding signal of IL-17R after the antibody incubation indicates the binding of the antibody to IL-17R in solution.
A reference antigen binding protein (e.g., Antibody 16429 for human IL-17R or Antibody 16449 for human TR2) is immobilized to a BIACore® 2000, research grade sensor chip CM5 surface according to manufacturer's instructions (BIACore, Inc., Piscataway, N.J.). Carboxyl groups on the sensor chip surfaces are activated by injecting 60 μL of a mixture containing 0.2 M N-ethyl-N′-(dimethylaminopropyl) carbodiimide (EDC) and 0.05 M N-hydroxysuccinimide (NHS). The reference antigen binding protein is diluted in 10 mM sodium acetate, pH 4.0 and injected over the activated chip surface at 30 μL/min for 6 minutes. Excess reactive groups on the surfaces are deactivated by injecting 60 μL of 1 M ethanolamine. The final immobilized level is typically approximately 6600 resonance units (RU). Soluble target antigen (e.g., 10 nM of soluble human IL-17R or 30 nM of soluble human TR2) in the absence of soluble antigen binding protein (e.g., antibody) is used to establish the 100% binding signal to the fixed reference antigen binding protein (e.g., the positive control antibody). The decreased binding signal of the target antigen after incubation of the test immunoglobulin indicates its level of binding to the target antigen in solution.
The lead candidates were then selected based on lack of binding to the IL-17R extracellular domain as determined by BIAcore analysis. Antibody 16429 is a human antibody that specifically binds to huIL-17R. A solution equilibrium binding assay was developed to assess the binding activity of a set of antibodies to huIL-17R. Antibody 16429 was immobilized to a BIACore® 2000, research grade sensor chip CM5 surface according to manufacturer's instructions (BIACore, Inc., Piscataway, N.J.). Briefly, carboxyl groups on the sensor chip surfaces were activated by injecting 60 μL of a mixture containing 0.2 M N-ethyl-N′-(dimethylaminopropyl) carbodiimide (EDC) and 0.05 M N-hydroxysuccinimide (NHS). Antibody 16429 was diluted in 10 mM sodium acetate, pH 4.0 and injected over the activated chip surface at 30 μL/min for 6 minutes. Excess reactive groups on the surfaces were deactivated by injecting 60 μL of 1 M ethanolamine. […]

Row | Molecule | AUC0-t±SD [1] | IL-17R binding capability (huIL-17R) | IL-17R binding activity (huIL-17R)
1 | 16435 (antibody, 16435 (LC: P66L, D90E)) heavy: MEWTWRVLFLVAAATGAHSQVQLVQSGAEVKKPGASVKVSCKASGYTFTRYGISWVRQAPGQGLEWMGWISTYSGNTNYAQKLQGRVTMTTDTSTSTAYMELRSLRSDDTAVYYCARAQLYFDYWGQGTLVTVSSASTKGPSVFPLAPCSRSTSESTAALGCLVKDYFPEPVTVSWNSGALTSGVHTFPAVLQSSGLYSLSSVVTVPSSNFGTQTYTCNVDHKPSNTKVDKTVERKCCVECPPCPAPPVAGPSVFLFPPKPKDTLMISRTPEVTCVVVDVSHEDPEVQFNWYVDGVEVHNAKTKPREEQFNSTFRVVSVLTVVHQDWLNGKEYKCKVSNKGLPAPIEKTISKTKGQPREPQVYTLPPSREEMTKNQVSLTCLVKGFYPSDIAVEWESNGQPENNYKTTPPMLDSDGSFFLYSKLTVDKSRWQQGNVFSCSVMHEALHNHYTQKSLSLSPGK light: EIVMTQSPATLSVSPGERATLSCRASQSVSSNLAWFQQKPGQAPRLLIYDASTRATGVPARFSGSGSGTEFTLTISSLQSEDFAVYYCQQYDNWPLTFGGGTKVEIKRTVAAPSVFIFPPSDEQLKSGTASVVCLLNNFYPREAKVQWKVDNALQSGNSQESVTEQDSKDSTYSLSSTLTLSKADYEKHKVYACEVTHQGLSSPVTKSFNRGEC | 18,492±2,104 μg/h/mL | substantial reduction in IL-17R binding capability | no significant IL-17R binding activity
2 | 16444 (antibody, 16444 (LC: P66L, D90E, W114A)) heavy: MEWTWRVLFLVAAATGAHSQVQLVQSGAEVKKPGASVKVSCKASGYTFTRYGISWVRQAPGQGLEWMGWISTYSGNTNYAQKLQGRVTMTTDTSTSTAYMELRSLRSDDTAVYYCARAQQYFDYWGQGTLVTVSSASTKGPSVFPLAPCSRSTSESTAALGCLVKDYFPEPVTVSWNSGALTSGVHTFPAVLQSSGLYSLSSVVTVPSSNFGTQTYTCNVDHKPSNTKVDKTVERKCCVECPPCPAPPVAGPSVFLFPPKPKDTLMISRTPEVTCVVVDVSHEDPEVQFNWYVDGVEVHNAKTKPREEQFNSTFRVVSVLTVVHQDWLNGKEYKCKVSNKGLPAPIEKTISKTKGQPREPQVYTLPPSREEMTKNQVSLTCLVKGFYPSDIAVEWESNGQPENNYKTTPPMLDSDGSFFLYSKLTVDKSRWQQGNVFSCSVMHEALHNHYTQKSLSLSPGK light: EIVMTQSPATLSVSPGERATLSCRASQSVSSNLAWFQQKPGQAPRLLIYDASTRATGVPARFSGSGSGTEFTLTISSLQSEDFAVYYCQQYDNAPLTFGGGTKVEIKRTVAAPSVFIFPPSDEQLKSGTASVVCLLNNFYPREAKVQWKVDNALQSGNSQESVTEQDSKDSTYSLSSTLTLSKADYEKHKVYACEVTHQGLSSPVTKSFNRGEC | 21,021±2,832 μg/h/mL | substantial reduction in IL-17R binding capability | no significant IL-17R binding activity

From patent US9803019B2, “Carrier immunoglobulins and uses thereof” (Amgen Inc., priority 2010, dated 2017)
